# Hit rate of the full screen: of about 310,000 compounds, about 14,000 (4.5%) showed an effect of 50% or more. The effect is printed as a negative number. Some of the results follow.
# Biological target: human ether-à-go-go-related gene (hERG) potassium channel (human, UniProt Q12809)
# Assay: primary screen, population patch clamp on CHO cells stably expressing hERG
# 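Further: peak tail current of the secondary pulse compared with the same well before compound.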
# Chain of human ether-à-go-go-related gene (hERG) potassium channel (Q12809 whole entry, looked up): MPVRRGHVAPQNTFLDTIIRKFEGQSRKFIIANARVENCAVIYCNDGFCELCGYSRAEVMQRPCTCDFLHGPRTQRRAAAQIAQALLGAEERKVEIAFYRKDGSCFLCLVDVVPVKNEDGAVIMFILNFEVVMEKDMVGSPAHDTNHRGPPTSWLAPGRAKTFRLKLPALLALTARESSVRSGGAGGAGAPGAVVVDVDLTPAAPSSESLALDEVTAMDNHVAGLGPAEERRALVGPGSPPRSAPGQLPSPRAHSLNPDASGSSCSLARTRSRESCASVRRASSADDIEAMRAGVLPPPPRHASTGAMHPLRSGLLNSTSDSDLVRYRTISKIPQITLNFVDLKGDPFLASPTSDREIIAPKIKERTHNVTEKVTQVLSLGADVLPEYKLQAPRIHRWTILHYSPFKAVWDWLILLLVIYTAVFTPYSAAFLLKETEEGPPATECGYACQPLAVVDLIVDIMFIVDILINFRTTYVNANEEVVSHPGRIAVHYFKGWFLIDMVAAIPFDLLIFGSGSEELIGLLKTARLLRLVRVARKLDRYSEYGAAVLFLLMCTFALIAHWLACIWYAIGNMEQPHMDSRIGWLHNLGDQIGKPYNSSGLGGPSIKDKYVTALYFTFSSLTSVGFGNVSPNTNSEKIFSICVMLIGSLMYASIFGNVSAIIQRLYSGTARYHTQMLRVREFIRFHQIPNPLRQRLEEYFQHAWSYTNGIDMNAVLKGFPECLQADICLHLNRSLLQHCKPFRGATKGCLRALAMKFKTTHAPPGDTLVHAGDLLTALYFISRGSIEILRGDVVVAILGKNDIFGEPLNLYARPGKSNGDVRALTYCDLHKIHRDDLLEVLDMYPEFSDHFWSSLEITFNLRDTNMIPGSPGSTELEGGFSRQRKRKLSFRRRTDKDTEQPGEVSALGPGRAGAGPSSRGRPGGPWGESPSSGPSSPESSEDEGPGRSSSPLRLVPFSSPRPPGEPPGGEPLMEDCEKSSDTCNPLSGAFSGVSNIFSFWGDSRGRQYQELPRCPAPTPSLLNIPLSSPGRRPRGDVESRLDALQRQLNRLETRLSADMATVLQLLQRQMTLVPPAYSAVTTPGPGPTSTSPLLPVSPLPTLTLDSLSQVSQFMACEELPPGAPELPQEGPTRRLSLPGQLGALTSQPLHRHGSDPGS
row,SMILES,"hERG current change (%, negative = inhibition) at 10uM"
1,Cc1cc(C)c2nc(N(CCN(C)C)C(=O)/C=C/c3cccs3)sc2c1.Cl,17.9%
2,Fc1ccccc1Cc1noc(CN2CCN(c3ccc(Cl)cn3)CC2)n1,-38%
3,COc1ccc(CCNc2nc(-c3sc(N)nc3C)cs2)cc1OC,-1.28%
4,Cc1ccc2oc(-c3cccc(NC(=O)/C=C/c4cccc([N+](=O)[O-])c4)c3C)nc2c1,-0.234%
5,O=C(O)C1Cc2ccccc2CN1S(=O)(=O)c1ccc(Cl)cc1 (stereo not drawn),16.5%
6,Cc1cccc(-n2c(C)nc3cc(C(=O)N4CCC5(CC4)OCCO5)ccc32)c1,-22.7%
7,Cc1cc(NC(=O)CCC(=O)N(Cc2ccco2)C2(C(=O)NC3CCCC3)CCCCC2)no1,-4.32%
8,O=C(COC(=O)c1ccc([N+](=O)[O-])s1)Nc1cccc(S(=O)(=O)NC2=NCCCCC2)c1,-18.5%
9,Cc1nn(CC#N)c(=O)n1-c1cccc(F)c1,20.3%
10,Cc1ccc(S(=O)(=O)N2CCN(C(=O)CSC3CCCC3)CC2)c(C)c1,-42.4%
11,NC(=O)NCCC1=CCCCC1,15.2%
12,CCN(CC)S(=O)(=O)c1ccc(OC)c(NC(=O)C2CC(=O)N(c3ccc(C)cc3)C2)c1 (stereo not drawn),-19.6%
13,CN(C)CC/C=C1/c2cc(F)ccc2CSc2ccc(F)cc21,-43.2%
14,CCCCn1c(O)c(C(C)=NCCc2ccccc2)c(=O)[nH]c1=O,0.0399%
15,O=C(CNS(=O)(=O)c1cccs1)N1CCN(c2ccccn2)CC1,-24%
16,CCCN1CCC(NC(=S)Nc2ccc(S(N)(=O)=O)cc2)CC1,10.7%
17,COc1ccc(C(C2C(=O)CC(C)(C)CC2=O)C2C(=O)CC(C)(C)CC2=O)cc1CO,-11.9%
18,Cc1ccc(C)c(N2CCN(S(=O)(=O)c3ccc(-c4cc(C)no4)s3)CC2)c1,16.9%
19,O=C(NC1CCCCC1)C(c1ccncc1)N(C(=O)c1csnn1)c1ccccc1 (stereo not drawn),11.9%
20,CCOc1ccc(C(=O)NC(=S)NC2CCCC2)cc1[N+](=O)[O-],-0.762%
21,CCN(CC)CC(=O)Nc1cc(N(C)C)nc2ccccc12.O=C(O)C(=O)O,-35.3%

row,SMILES,"hERG current change (%, negative = inhibition) at 10uM"
1,Cc1ccc(NC(=O)COC(=O)CCc2c[nH]c3ccccc23)cc1[N+](=O)[O-],10.4%
2,CCCC(C)NC1=NCCCCC1 (stereo not drawn),-0.474%
3,COC(=O)c1c(NC(=O)C2C3C=CC(CC3)C2C(=O)O)sc(C)c1C (stereo not drawn),-2.36%
4,N=C1/C(=C/c2ccc(Br)o2)C(=O)N=C2SC(CC(=O)N3CCCC3)=NN12,6.8%
5,COc1ccc(NC(=O)CN(C)C(=O)c2cn(-c3ccccc3)nc2-c2ccc(F)cc2)cc1,-7.18%
6,COc1ccc2c(c1)CCc1c(C(=O)N3CCCCCC3)noc1-2,-15.8%
7,CCOC(=O)C1=C(CS(=O)(=O)c2ccc(C)cc2)NC(=O)NC1c1ccc(O)c(OC)c1 (stereo not drawn),19.6%
8,O=C(COC(=O)/C=C/c1ccc(Cl)c(Cl)c1)NC1CCCC1,20%
9,CCN(c1ccccc1)S(=O)(=O)c1cc(C(=O)OC(C)C(=O)Nc2ccc3c(c2)OCCO3)ccc1C (stereo not drawn),14.1%
10,Cc1cc(C)n2nc(C(=O)OCCOc3ccc(F)cc3)nc2n1,-12.3%
11,CC(NC(=O)COC(=O)Cn1cnc2ccccc2c1=O)C1CC2CCC1C2 (stereo not drawn),4.01%
12,COc1ccc(-c2noc(CCC(=O)NCC3CCCO3)n2)cc1OC (stereo not drawn),-10%
13,O=C(O)CN1C(=O)C(=O)N(Cc2ccccc2F)C1=O,14.4%
14,Cc1ccc(CN2CCN(CC(=O)NC(C)CCc3ccccc3)C2=O)cc1 (stereo not drawn),-20.6%
15,CNC(=O)c1sc(=S)n(-c2ccc(OC)cc2)c1N,13.7%
16,O=C(NCCN1CCN(c2ccccc2)CC1)c1ccc(NC(=O)C2CCCO2)cc1 (stereo not drawn),11.7%
17,COc1cccc(CNc2ccc(S(=O)(=O)N3CCN(C)CC3)cn2)c1,-7.97%
18,COc1ccc(NC(=O)NNC(=O)COc2ccc3ccccc3c2)cc1,13.3%
19,Cc1cc2c(c(=O)n1CCN(C)C)C(c1ccccc1Br)C(C#N)=C(N)O2 (stereo not drawn),-26.1%
20,CCn1cc(S(=O)(=O)CC(=O)Nc2cc(C)on2)c2ccccc21,11.8%
21,O=C(Nc1ccccc1C(=O)N1CCCCC1)c1ccc(Cl)cc1Cl,0.654%

# — paper PMC4336329 (PLoS ONE, 2015)
